These results are taken from PMC5892938.

The other results are listed elsewhere or left out. At the low end of the ranking the order means little.

The target in the experiment is GST-SBP-SLBP (stem-loop binding protein) (UniProt Q14493). Briefly: targeted RNA Bind-n-Seq.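 Note: DESeq read counts versus GST-SBP nonspecific binding control pulldown.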 Conditions: RBNS binding buffer: 25 mM Tris pH 7.5, 150 mM KCl, 3 mM MgCl2, 0.1% Tween, 0.5 mg/mL BSA, 1 mM DTT; 27 nM protein, 750 pM RNA pool; temperature not stated; high values mean tight binding.
For the sequence “GGUCACGUCUCAAUCAACUCUUUCCCCAGGGAAAUCCCUGGUUUACUCAACAGCUCGCAGUCAAG”, the binding signal (log2 fold change) came out at 0.0469.

For “GGUCACGUCUCAAUCAACUCUACUCCCAGGGAAAACCCUGGUUAUCUCAACAGCUCGCAGUCAAG”, the binding signal (log2 fold change) came out at 0.00217.

Regarding “GGUCACGUCUCAAUCAACUCAUAAGAGGGGGGGAAAACCCCUUUACCCUCACAUUCAACAGCUCGCAGUCAAG”, the binding signal (log2 fold change) amounted to 0.135.

With “GGUCACGUCUCAAUCAACUCUAUUUCCAGGGAAAGCCCUGGCAUACUCAACAGCUCGCAGUCAAG”, the binding signal (log2 fold change) was -0.192.

Consider “GGUCACGUCUCAAUCAACUCUAUCGCAGGAGUUUUCUCCUGGUAUUUCAACAGCUCGCAGUCAAG”, for which the binding signal (log2 fold change) was 0.126.

As for “GGUCACGUCUCAAUCAACUCUUUCCCAGGAGUUUCCUCCUGUAAUCUCAACAGCUCGCAGUCAAG”, the binding signal (log2 fold change) was -0.0201.

As for “GGUCACGUCUCAAUCAACUCAAUCCCCAGGGAAAGCCCUGGCUUAUUCAACAGCUCGCAGUCAAG”, the binding signal (log2 fold change) amounted to 0.295.

For the sequence “GGUCACGUCUCAAUCAACUCAUUCUCCAGGGAAAGCCCUGGCAUAUUCAACAGCUCGCAGUCAAG”, the binding signal (log2 fold change) was determined as 0.258.

For “GGUCACGUCUCAAUCAACUCUACUUCCAGGGAAAUCCCUGGCAUACUCAACAGCUCGCAGUCAAG”, the binding signal (log2 fold change) is -0.175.

In the case of “GGUCACGUCUCAAUCAACUCAAUCCCAGGAGUUUUCUCCUGCUAAUUCAACAGCUCGCAGUCAAG”, the binding signal (log2 fold change) is -0.113.

With “GGUCACGUCUCAAUCAACUCUUCCUCAGGAGUUUUCUCCUGUUAUGUCAACAGCUCGCAGUCAAG”, the binding signal (log2 fold change) is 0.129.

On to “GGUCACGUCUCAAUCAACUCAUUUCCCAGGGAAAUCCCUGGCUUACUCAACAGCUCGCAGUCAAG”, for which the binding signal (log2 fold change) was determined as 0.0367.

For the sequence “GGUCACGUCUCAAUCAACUCACACGAGGGGGGGAAAACCCCUUUACCCUCUUUCUCAACAGCUCGCAGUCAAG”, the binding signal (log2 fold change) came out at 0.044.

For “GGUCACGUCUCAAUCAACUCAUCGCCAGGAGUUUUCUCCUGCUAUUUCAACAGCUCGCAGUCAAG”, the binding signal (log2 fold change) was found to be 0.109.

Consider “GGUCACGUCUCAAUCAACUCAUCCUCCAGGGAAAACCCUGGUUUACUCAACAGCUCGCAGUCAAG”, for which the binding signal (log2 fold change) was -0.11.

Turning to “GGUCACGUCUCAAUCAACUCUCUAGAGGGGGGGAAAACCCCUUUGCCCUCCGUUUCAACAGCUCGCAGUCAAG”, the binding signal (log2 fold change) amounted to 0.354.

Consider “GGUCACGUCUCAAUCAACUCAUUUUCAGGAGUUUUCUCCUGCAAUCUCAACAGCUCGCAGUCAAG”, for which the binding signal (log2 fold change) was -0.134.

In the case of “GGUCACGUCUCAAUCAACUCAGUUCCAGGAGUUUUCUCCUGCAUUCUCAACAGCUCGCAGUCAAG”, the binding signal (log2 fold change) came out at 0.167.

Consider “GGUCACGUCUCAAUCAACUCUCACGAGGGGGGGAAAACCCCUUUACCCUCAUUCUCAACAGCUCGCAGUCAAG”, for which the binding signal (log2 fold change) turned out to be 0.0045.

In the case of “GGUCACGUCUCAAUCAACUCUAUCCCAGGAGUUUCCUCCUGCAAAUUCAACAGCUCGCAGUCAAG”, the binding signal (log2 fold change) came out at 0.253.

Consider “GGUCACGUCUCAAUCAACUCCCAAGAGGGGGGGAAAACCCCUUUGCCCUCAUCUUCAACAGCUCGCAGUCAAG”, for which the binding signal (log2 fold change) was -0.256.
